# The other results are listed elsewhere or left out.
# System: PF3D7_0420300 AP2 domain 1 (GST-tagged)
# Experiment: gcPBM binding intensity (ln(normalized median fluorescence intensity)); higher = stronger DNA binding
# Outline: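 The highest Masliner-normalised natural-log median intensity across replicate spots of either probe orientation is reported as binding intensity. GST-tagged P. falciparum DNA-binding domains expressed in E. coli were applied for 1 h to an Agilent 4 × 180k array of primer-extended double-stranded 36-bp intergenic genomic probes plus negative controls, and bound protein was detected with Alexa488 anti-GST antibody and scanned at 488 nm.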
row,Sequence,gcPBM binding intensity (ln)
1,AAAAAAAAAAAAAACACACACACAAAATAAACAAAC [CACACA_site2720],10.3
2,AGATGTTTTTATATATGTACTTAAATACACAAATAT [XGTACX_site8250],9.19
3,TGATAATTTTTTACATGTACAAGTTTGTTTTTGCAT [XGTACX_site125],9.36
4,TTATCGGTATAATATAGTACATATAGATATATAATA [XGTACX_site1440],9.21
5,TGAAAAATAAATAAATGTACATATATATATATATAC [XGTACX_site7310],9.18
6,AAAAGGTTATCAATATGTACATATTTTTTTATTTTT [XGTACX_site3277],9.32
7,AGAAATACAAAATAAATATAAGAAACAAAATATTTA [CACACA_negctrl_site780],9.42
8,TTTTAATTAAAACACACACACACATATATATATATA [CACACA_site2291],10
9,TATTTCATCATATTGTGTACTTAATTTATATAATTA [XGTACX_site5753],9.33
10,ATAAAAATATGATCAACACACGATTAAATATTCATA [CACACA_site1495],9.46
11,CATCTAAATTGTAGTTGTACACCTTAATCTTATTAC [XGTACX_site7547],9.4
12,TATTTTATCATTTGCACACGCACACCGACATAAAAA [CACACA_site4348],9.51
13,ATTTTAGAATAAATTTTTTACATTAAAAAACTATTT [CACACA_negctrl_site1414],8.88
14,ACTCTCTTATATTAAACACACATATTTATAGGTATA [CACACA_site7302],9.44
15,GTATCAAAAGAATACACACACACATACATATATATA [CACACA_site3796],10.2
16,CATACAATAAATATGGTGCATTTTATGTAACCGTTT [GTGCAC_site9420],9.14
17,TGAACATATTAAAATTGTACATATGCACAATATGTA [XGTACX_site6801],9.08
18,CACATACAGACATACACACACATATAGATTAATATA [CACACA_site6399],9.93
19,TATATATATATATTATGTACATATATATTAAATATG [XGTACX_site2494],9.03
20,AATAAGAAATGTAAATGTACATAAAAAAAAGTATAT [XGTACX_site3573],9.52
21,TTAGGGTTTTATAAATGTACTTATTTATACATCCTC [XGTACX_site5769],9.14
22,TAAACATTTTTGCACGCACACAAAAAAAAAATAAAA [CACACA_site167],9.28
23,ATTTTTTAACATATCATACACACAACCACTTTTTAT [CACACA_site1961],9.79
24,ATTAAATGCAGTTCGGTGCATTAAGGTTATGATGAA [GTGCAC_site9883],9.12

# — the supplement of paper PMC11417369
